Results: publication PMC13349382
Positions count from the first letter of the chain named. No constants are given. Whether binding was seen depends on the method and setting. Binding seen in cells or lysates may run through a third protein. Some binding calls cover weakened binding; strength is not graded here. For some assays here: Tags and fused reporters may be left off the sequences shown. One block for each molecule: values may come before it.

The chains behind the UniProt entries cited, without tags or fusion partners.
UniProt P63168: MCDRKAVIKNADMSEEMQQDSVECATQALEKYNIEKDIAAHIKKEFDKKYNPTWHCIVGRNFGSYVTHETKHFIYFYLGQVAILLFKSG
UniProt P62259: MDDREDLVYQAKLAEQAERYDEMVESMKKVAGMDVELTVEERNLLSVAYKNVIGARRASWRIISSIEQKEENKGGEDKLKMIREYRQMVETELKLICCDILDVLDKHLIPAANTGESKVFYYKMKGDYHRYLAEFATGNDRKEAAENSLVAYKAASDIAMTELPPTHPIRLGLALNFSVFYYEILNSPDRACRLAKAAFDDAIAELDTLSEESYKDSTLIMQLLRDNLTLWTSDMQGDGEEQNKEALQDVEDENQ
UniProt P32958: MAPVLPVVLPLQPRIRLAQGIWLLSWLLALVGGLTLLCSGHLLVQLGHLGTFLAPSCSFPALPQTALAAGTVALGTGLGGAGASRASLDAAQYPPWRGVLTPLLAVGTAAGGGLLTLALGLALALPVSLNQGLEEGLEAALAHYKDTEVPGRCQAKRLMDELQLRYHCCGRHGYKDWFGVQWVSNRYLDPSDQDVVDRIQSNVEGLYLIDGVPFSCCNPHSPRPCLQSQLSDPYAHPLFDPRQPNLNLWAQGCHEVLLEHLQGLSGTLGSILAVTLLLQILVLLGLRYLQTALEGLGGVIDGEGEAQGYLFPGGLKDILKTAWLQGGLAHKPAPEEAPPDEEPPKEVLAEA

Tests used:
[1] = target: T1, EML3 (untagged mouse Eml3 expression construct) (mouse) (UniProt Q8VC03); assay: co-IP; HEK293T cells co-transfected with expression constructs; lysis in 1% NP-40 buffer; immunoprecipitation with EML3 rabbit polyclonal antibody and anti-rabbit IgG Dynabeads; immunoblotting
T1 sequence: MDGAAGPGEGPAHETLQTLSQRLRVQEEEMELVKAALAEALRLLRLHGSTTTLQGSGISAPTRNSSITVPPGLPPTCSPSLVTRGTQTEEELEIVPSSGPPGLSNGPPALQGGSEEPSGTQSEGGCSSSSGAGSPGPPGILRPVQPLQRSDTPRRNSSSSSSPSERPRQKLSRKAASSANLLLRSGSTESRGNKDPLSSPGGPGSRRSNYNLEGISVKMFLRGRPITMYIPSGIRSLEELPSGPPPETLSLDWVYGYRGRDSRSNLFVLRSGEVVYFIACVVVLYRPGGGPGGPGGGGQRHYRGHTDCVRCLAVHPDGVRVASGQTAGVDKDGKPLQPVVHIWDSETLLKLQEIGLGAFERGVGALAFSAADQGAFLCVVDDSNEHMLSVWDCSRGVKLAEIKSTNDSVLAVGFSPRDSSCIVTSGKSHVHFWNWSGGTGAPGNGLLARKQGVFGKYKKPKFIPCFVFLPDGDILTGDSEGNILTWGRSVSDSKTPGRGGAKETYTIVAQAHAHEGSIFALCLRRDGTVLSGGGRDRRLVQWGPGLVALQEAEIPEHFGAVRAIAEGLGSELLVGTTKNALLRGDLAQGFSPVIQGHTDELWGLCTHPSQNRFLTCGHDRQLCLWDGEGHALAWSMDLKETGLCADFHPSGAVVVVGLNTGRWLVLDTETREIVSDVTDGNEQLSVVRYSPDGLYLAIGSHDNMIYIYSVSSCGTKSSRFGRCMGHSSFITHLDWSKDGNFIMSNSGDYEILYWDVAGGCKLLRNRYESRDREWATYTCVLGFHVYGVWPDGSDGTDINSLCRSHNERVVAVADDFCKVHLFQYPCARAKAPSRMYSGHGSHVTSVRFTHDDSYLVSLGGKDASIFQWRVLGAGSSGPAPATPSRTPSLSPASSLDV

[2] = target: T2, EML3 TQT86AAA mutant protein (custom made Eml3^TQT86AAA construct) (mouse) (UniProt Q8VC03); assay: as above
T2 sequence: T1 sequence with T86A, Q87A, T88A

[3] = target: T1, EML3 (untagged mouse Eml3 expression construct) (mouse); assay: co-IP; co-immunoprecipitation in transfected cells; data not shown

binding [2]: no binding
binding [1]: binds
Molecule: Dynll1-FLAG (from UniProt P63168 1-89)

binding [1]: binds
Molecule: Ywhae-FLAG (from UniProt P62259 1-255)

Continued, molecule first:

Molecule: ROM1 (Rod outer segment membrane protein 1), untagged (from UniProt P32958 1-351)
binding [1]: no binding

B1: 14-3-3 gamma (YWHAG) expressed in transfected cells (protein, UniProt P61982 1-247)
chain: MVDREQLVQKARLAEQAERYDDMAAAMKNVTELNEPLSNEERNLLSVAYKNVVGARRSSWRVISSIEQKTSADGNEKKIEMVRAYREKIEKELEAVCQDVLSLLDNYLIKNCSETQYESKVFYLKMKGDYYRYLAEVATGEKRATVVESSEKAYSEAHEISKEHMQPTHPIRLGLALNYSVFYYEIQNAPEQACHLAKTAFDDAIAELDTLNEDSYKDSTLIMQLLRDNLTLWTSDQQDDDGGEGNN
binding [3]: binds
